The BET-seq Pho4 binding data (Le et al. 2018)
The other results are listed elsewhere or left out. These are noisy estimates, calculated here from bound and input reads.

What follows are sequences tested against T1, Pho4 (S. cerevisiae) (UniProt P07270) (assay: relative binding free energy (BET-seq); higher = weaker binding). Details: reference: library average.
T1 sequence: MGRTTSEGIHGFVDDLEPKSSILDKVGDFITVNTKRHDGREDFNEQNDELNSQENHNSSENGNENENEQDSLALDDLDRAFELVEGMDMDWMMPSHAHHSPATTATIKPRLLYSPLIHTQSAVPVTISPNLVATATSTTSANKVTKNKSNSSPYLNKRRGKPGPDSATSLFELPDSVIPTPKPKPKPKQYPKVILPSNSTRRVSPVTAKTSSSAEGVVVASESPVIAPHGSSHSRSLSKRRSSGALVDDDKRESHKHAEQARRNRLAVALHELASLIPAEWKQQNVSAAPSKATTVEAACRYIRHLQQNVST

Row | Sequence | relative binding free energy
1 | GTCGTCACGTGCAGTG | 0.06 kcal/mol
2 | TCATTCACGTGCGTTT | 0.21 kcal/mol
3 | GTGGGCACGTGCTAGC | -0.09 kcal/mol
4 | GGCGTCACGTGAGTAT | 0.17 kcal/mol
5 | AATGACACGTGATTTG | 0.07 kcal/mol
6 | AGGATCACGTGTCATT | 0.21 kcal/mol
7 | ATCGTCACGTGCAGGG | 0.03 kcal/mol
8 | GTTAGCACGTGCGGGT | -0.05 kcal/mol
9 | GTTGACACGTGGTGTC | -0.09 kcal/mol
10 | TATAGCACGTGTTTAA | -0.13 kcal/mol
11 | CAGGGCACGTGGAATG | 0 kcal/mol
12 | TTGGTCACGTGGGCCA | -0.03 kcal/mol
13 | AGCATCACGTGGCGGT | 0.07 kcal/mol
14 | AATGTCACGTGAAAGT | 0.24 kcal/mol
15 | GAGTACACGTGTTAGG | 0.01 kcal/mol
16 | GATGGCACGTGGAAAG | 0.13 kcal/mol
17 | AGCGTCACGTGGAGAG | 0.04 kcal/mol
18 | TCGGCCACGTGTATGG | -0.06 kcal/mol
19 | TTTCACACGTGTAGGG | 0.17 kcal/mol
20 | GTTGACACGTGGCTTT | -0.02 kcal/mol
21 | TTGTCCACGTGGAGAT | 0.21 kcal/mol
22 | GGTCACACGTGTGTGG | 0.16 kcal/mol
23 | TGGTTCACGTGGAGAC | 0.18 kcal/mol

Row | Sequence | relative binding free energy
24 | GCGGGCACGTGGGGAG | -0.12 kcal/mol
25 | CGAAGCACGTGAGGTG | 0.01 kcal/mol
26 | CGTTACACGTGCGGTT | 0.05 kcal/mol
27 | CAGGTCACGTGTGGTT | 0.16 kcal/mol
28 | TTGGGCACGTGGCAAT | -0.03 kcal/mol
29 | GGTAGCACGTGTGTCG | 0.02 kcal/mol
30 | CTAGTCACGTGGTGCT | 0 kcal/mol
31 | TGGGACACGTGATATA | 0.04 kcal/mol
32 | TTGTTCACGTGGTCAG | 0.17 kcal/mol
33 | TTATGCACGTGTGGTA | -0.03 kcal/mol
34 | GTAGGCACGTGTAATA | -0.01 kcal/mol
35 | GACGTCACGTGAGTGT | 0.4 kcal/mol
36 | AGGGGCACGTGACAAT | 0.01 kcal/mol
37 | TTCTGCACGTGGTGCG | -0.17 kcal/mol
38 | TTGAGCACGTGTGCGG | -0.06 kcal/mol
39 | AAGTACACGTGGTTAA | -0.01 kcal/mol
40 | CGGGTCACGTGGGGCT | 0.01 kcal/mol
41 | ATGAGCACGTGTGTTG | -0.1 kcal/mol
42 | CGTTACACGTGTGGAA | 0.11 kcal/mol
43 | GTTTGCACGTGGTCGA | -0.11 kcal/mol
44 | CAGGGCACGTGGTCTG | -0.12 kcal/mol
45 | GTACTCACGTGTTGTT | 0.22 kcal/mol
46 | AGTATCACGTGGGGGA | 0.04 kcal/mol

Row | Sequence | relative binding free energy
47 | TGTCGCACGTGAATGA | 0.2 kcal/mol
48 | TGAAGCACGTGATCGT | 0.14 kcal/mol
49 | GTGGACACGTGCGGGA | 0 kcal/mol
50 | CATGGCACGTGGTAGT | -0.14 kcal/mol
51 | TTGAGCACGTGCATTG | -0.06 kcal/mol
52 | GTTTACACGTGAACGT | 0.24 kcal/mol
53 | CATTGCACGTGATAGT | 0.01 kcal/mol
54 | GTGCACACGTGGAGGT | -0.03 kcal/mol
55 | GTTGCCACGTGGGCGT | -0.18 kcal/mol
56 | GACGGCACGTGTTCGG | -0.02 kcal/mol
57 | TAACGCACGTGTATGG | -0.01 kcal/mol
58 | TTGGGCACGTGGACGT | -0.13 kcal/mol
59 | TTTAGCACGTGGTTGC | -0.11 kcal/mol
60 | GGCCGCACGTGGAAGG | 0.07 kcal/mol
61 | TTCGACACGTGTAGGA | 0.11 kcal/mol
62 | GGCAGCACGTGTGGAG | 0.02 kcal/mol
63 | ATGATCACGTGTTGGT | 0.16 kcal/mol
64 | GTGTTCACGTGGCAAT | 0.33 kcal/mol
65 | ATTTGCACGTGATTCG | 0 kcal/mol
66 | CAGTTCACGTGGTTGT | 0.24 kcal/mol
67 | TTTATCACGTGAGGAG | 0.3 kcal/mol
68 | TGTAACACGTGAGGAG | 0.34 kcal/mol
69 | GGGATCACGTGGTCGG | 0.09 kcal/mol

Row | Sequence | relative binding free energy
70 | ATGAGCACGTGGGCGT | -0.27 kcal/mol
71 | GTCGTCACGTGGGGGC | 0 kcal/mol
72 | TCAATCACGTGTTGGG | 0.03 kcal/mol
73 | TCGTTCACGTGTGACG | 0.37 kcal/mol
74 | CCGTACACGTGTGGGT | 0.03 kcal/mol
75 | CGGAACACGTGGGTAG | -0.11 kcal/mol
76 | AAAGACACGTGGGAGT | -0.19 kcal/mol
77 | TGTTCCACGTGAGGGT | 0.29 kcal/mol
78 | ATGGCCACGTGCTGGT | -0.14 kcal/mol
79 | TGTAACACGTGTCGTA | 0.07 kcal/mol
80 | TCTATCACGTGGCTGG | 0.13 kcal/mol
81 | AGCAGCACGTGGCGGG | -0.29 kcal/mol
82 | GAAATCACGTGGGGAG | 0.1 kcal/mol
83 | TATGTCACGTGCTCGT | -0.06 kcal/mol
84 | AGTATCACGTGGGTAT | 0.05 kcal/mol
85 | ACAAGCACGTGGTGGG | -0.23 kcal/mol
86 | TGCCTCACGTGGGGTT | 0.01 kcal/mol
87 | TGGTACACGTGTTGTC | 0.11 kcal/mol
88 | TTCAGCACGTGGTTGG | -0.07 kcal/mol
89 | TTGGGCACGTGCTGTG | -0.1 kcal/mol
90 | GTTAACACGTGTCTTG | 0.09 kcal/mol
91 | CTGTACACGTGAGTTA | 0.24 kcal/mol
92 | GGGTGCACGTGGAGGT | 0.04 kcal/mol

Row | Sequence | relative binding free energy
93 | TCACGCACGTGGTGGG | -0.22 kcal/mol
94 | AGGGTCACGTGTCTGG | 0.11 kcal/mol
95 | TTATTCACGTGGCGGT | 0.15 kcal/mol
96 | AAGTTCACGTGTATGG | 0.18 kcal/mol
97 | TAGGACACGTGTTTAG | 0.14 kcal/mol
98 | AGTATCACGTGGTTAC | 0.11 kcal/mol
99 | GTTCGCACGTGAGCGT | 0.21 kcal/mol
100 | GTTATCACGTGAGTGA | 0.31 kcal/mol
101 | AATATCACGTGGGTGA | -0.06 kcal/mol
102 | GGGGACACGTGGGGGA | 0.03 kcal/mol
103 | GGTTGCACGTGTGTCA | 0.01 kcal/mol
104 | TTGTTCACGTGTGAAA | 0.22 kcal/mol
105 | TGCGCCACGTGTAGTT | -0.01 kcal/mol
106 | ATGTTCACGTGTGAAA | 0.28 kcal/mol
107 | CAGGTCACGTGGGGGC | 0.03 kcal/mol
108 | CGGGGCACGTGCGGTC | -0.12 kcal/mol
109 | GGGTTCACGTGATGGA | 0.48 kcal/mol
110 | TGCGTCACGTGAGGGA | 0.29 kcal/mol
111 | GCTCTCACGTGGTGGG | 0.28 kcal/mol
112 | GGTTTCACGTGTGAGG | 0.3 kcal/mol
113 | GGTGTCACGTGGAATT | 0.2 kcal/mol
114 | TCGTACACGTGATTGG | 0.09 kcal/mol
115 | ATTGTCACGTGTATCG | 0.09 kcal/mol
